# Measured values as given in ChEMBL document CHEMBL4888484, “Replenishing the malaria drug discovery pipeline: Screening and hit evaluation of the MMV Hit Generation Library 1 (HGL1) against asexual blood stage Plasmodium falciparum ,using a nano luciferase reporter read-out” (2022).
# Screen size: about 150,000 compounds; about 540 (0.36%) showed an effect of 50% or more. Some of the results follow.
# Tested on: Plasmodium falciparum
# Experiment: Primary screen in NF54 nanoGlo assay, in single point, at 2uM, 72h; a lower Z score goes with more inhibition
# Assay type: functional, Erythrocyte
# Conditions: timepoint 72 hour
Compound,% Inhibition [%],Z score
Cc1nc(C(C)C)sc1CNC(=O)[C@H]1C[C@H]2C=C[C@@H]1C2,-28,2.51
O=C(c1cnc(-c2cccnc2)nc1O)N(CCO)Cc1ccccc1Cl,-13,1.71
O=C(C1CCCCCC1)N1CCC(n2cc(C3CCCC3)nn2)CC1,-6,1.16
CN(C)CC(=O)N1CC2(CCCCC2)C[C@@H]1COCc1ccccc1,2,-0.39
Cc1cc(NS(=O)(=O)c2ccc(OCc3ncnn3C)cc2)n(C)n1,4,-0.52
O=C(Nc1cccc2cccnc12)c1ccccn1,79,-8.04
O=C(c1c[nH]c2c1ccc1ccccc12)C(F)(F)F,-12,2.21
Cc1nccn1-c1ncc(NC(=O)Nc2ccccc2)cn1,22,-0.58
C[C@](O)(CNC(=O)c1ccc(Br)o1)c1ccc2c(c1)OCO2,-10,1.71
CCC(CC)c1cc(C(=O)N2CCN(Cc3c(C)nc4cc(C)ccn34)CC2)on1,2,-0.27
Cn1ncnc1CCNc1nc2c(c(=O)[nH]1)Cc1ccccc1OC2,-3,0.62
Cc1cc(C(NC(=O)NC2CCS(=O)(=O)C2)C(C)C)c(C)s1 (stereo not drawn),-13,2.45
COCc1nc(-c2ccc3[nH]c(C)c(C)c3c2)n(CC(C)(C)O)n1,-20,1.8
CN(C)C(=O)N1CCC(c2nnc3n2CCN(C(=O)NCc2cccc(F)c2)C3)CC1,7,-1.12
CCc1ccc(CNC(=O)[C@H]2CCn3c(nc4ccccc43)C2)cc1,-2,0.37
Cc1nn(-c2ccc3nncn3n2)c2c1[C@@H](c1ccc(F)c(F)c1F)CC(O)=N2,19,-2.38
O=C(NC1CC1)c1nnc(N2CCCCC2)c2ccccc12,-13,1.22
CCCCn1nc(-c2c[nH]c3ccccc23)nc1C1(O)CCN(C)CC1,-1,0.13
Cc1cccc(OCC(=O)N2CC(N(CCN3CCOCC3)S(C)(=O)=O)C2)c1,-6,0.77
CN(C(=O)[C@@H]1CCCO1)c1ncccc1F,4,-0.51
Cc1oc(C)c(C(=O)Nc2nc(-c3cccc(-n4cnnn4)c3)cs2)c1Cl,-7,1.15

Compound,% Inhibition [%],Z score
CCN1CCN(C[C@H]2COc3ccccc3O2)CC1,-1,0.13
Cc1cc(C)nc(O[C@H]2CCN(C(=O)COc3ccccc3F)C2)n1,-15,2.32
COc1ccc(CCN2C[C@H](O)C(C)(C)COCCC[C@H]3CN(Cc4c(C)noc4C)CC[C@H]3CC2=O)cc1,-13,1.88
Cc1cc(C)c(S(=O)(=O)N2CCCC(C(=O)N[C@@H]3CCCC[C@H]3NC(=O)c3ccccc3C)C2)c(C)c1 (stereo partly drawn),-15,2
CN1CCCCC(CNC(=O)NC2CCC(OC(F)F)C2)C1 (stereo not drawn),-12,2.19
CCCNCc1ccc(Cl)cc1Cl,-3,0.39
Cc1cccc(NC(=O)NCC(F)F)c1Br,-7,1.04
O=C(CN(C(=O)c1ccccc1F)C1CC1)N(CCc1c[nH]c2ccccc12)Cc1ccc(Cl)cc1,1,-0.22
Cc1ccc(C(=O)N2C[C@@H]3CN(CC4CCC4)C[C@]3(C(=O)O)C2)cc1,-5,0.48
Cc1cc(C)n(CC(=O)OCC(=O)NC(=O)NC(C)C2CC3CCC2C3)n1 (stereo not drawn),0,0.05
CCOc1c(Br)cc(CNc2ccc(N3CCN(C(C)=O)CC3)cc2)cc1OC,-17,2.12
O=C1CCC(C(=O)NC(c2ccccc2)C2CCOC2)N1 (stereo not drawn),1,-0.27
CC(C)C(=O)N(Cc1cc(NC(=O)NC(C)(C)C)ccc1N(C)C)[C@@H](C)C(C)C,-1,0.12
COc1cccc([C@H]2CN(C(=O)c3ccc(C)c(F)c3F)C[C@@H]2N)c1,2,-0.21
Cc1cc(Br)cnc1-c1noc([C@@](C)(O)C2CC2)n1,-3,0.36
C[C@@H](C(=O)OCc1ccccc1)S(N)(=O)=O,-8,1.44
O=C(CNc1ccc(F)cc1)N(Cc1ccncc1)C1CC1,-19,1.78
CCn1cnnc1CCNc1cc(C)c2cc(OC)cc(OC)c2n1,-20,2.75
O=C(NCCCC(=O)N1Cc2ccccc2C1)NCC1CCC1,-13,2.6
COc1ccc(-c2ccc(N3CCN(C(=O)CN(CCC(C)C)C(=O)Nc4ccc(C)cc4)CC3)nn2)c(OC)c1,9,-1.13
CCCCC1(CCCC)C(=N)N(C)C(=O)N(C)C1=O,-19,2.51

Compound,% Inhibition [%],Z score
CN(CC1CCOCC1)c1nccnc1N(C)CC1CCOCC1,-10,2
COc1cccc(CNC(=O)c2cc3n(n2)CCCN(Cc2ccc(Cl)cc2)C3=O)c1,-14,2.41
O=C(NCCOCc1ccccc1)[C@@H]1COc2ccccc21,0,-0.07
Cc1noc(C)c1N(C)C(=O)c1cccc(Br)c1C,3,-0.56
CC(C)Oc1ccc(C(=O)N2C3CCC2CC(n2nccn2)C3)cc1 (stereo not drawn),-3,0.58
O=C1NC2(CCCCC2)NC2=C1CCCC2,7,-0.93
Cc1ccc(F)c(C(=O)N2CCC(CO)(CN3CCCC3)CC2)c1F,-2,0.28
O=C(CN1CCC(NC(=O)N2CC(Oc3ccc(F)cc3)C2)CC1)NC1CC1,8,-1.21
Cc1ncc(C(=O)NCc2ccc3[nH]c(-c4ccccc4F)c(C)c3c2)cn1,-5,0.61
Cc1nn(C)c2nc(-c3ccccn3)nc(N3CCO[C@@H](CN)C3)c12,0,0.02
C[C@]1(O)CCN(C(=O)CCc2cn3ccccc3n2)C[C@@H]1O,-5,0.97
CC(C)(C)OC(=O)N1CC[C@@]2(C1)NC(=O)N(Cc1cc(-c3cccs3)on1)C2=O,17,-1.97
Cc1csc(CNc2nnc(C(C)C)o2)n1,7,-0.84
C=C(C(=O)N1CCN(C2CC2)C(=O)C1)c1ccc(Cl)cc1,-14,1.51
CCn1nc2n(c1=O)CCN(C(=O)c1nccn1C)[C@@H]2c1ccccc1,-7,1.02
Cc1ccc([C@@H](O)CNC(=O)C(C)(C)S(=O)(=O)C2CC2)cc1,-4,0.6
Cc1nnccc1NC(=O)NCc1cccc2c1OCC2,2,-0.35
Cc1ccc(C)c(N2CCN(C(=O)CCc3ccccc3)[C@@H](C)C2=O)c1,4,-0.62
CC(C)C[C@H]1CN(C)CCN1C(=O)CCc1cn(C)nn1,-3,0.44
CCN1CCN(C(=O)C[C@H](c2ccc(C(F)(F)F)cc2)c2cn(Cc3ccccc3)c3ccccc23)CC1,0,-0.01
O=C([C@@H]1COCC(=O)N1Cc1ccccc1)N1CCC(Cc2ccccc2)CC1,-7,1.37

Compound,% Inhibition [%],Z score
O=S(=O)(CCC1CCOCC1)N1CC2(CC2)C1,-10,1.86
CN1C[C@@H](NC(=O)c2ccnn2C2CCC2)Cc2ccccc21,-1,0.12
O=C(Nc1ccc(Cl)cc1)n1c(=S)oc2cc(Br)ccc21,34,-4.34
COCCC1(CNC(=O)c2cccnc2O[C@@H](C)C(F)(F)F)CCCC1,-10,1.44
CCc1nc([C@@H]2CCCN2c2ncccc2C#N)no1,-8,0.94
COCCOc1ccc(-c2nc(-c3oc(C)nc3C)cs2)cn1,-9,1.43
O=C(NCCc1ccc(Cl)s1)N1CCC[C@@H]1CO,-6,1.06
CC(CO)NC(=O)CC1CCCCO1 (stereo not drawn),0,0.03
O=C(CCc1ccc(F)cc1)NCc1n[nH]c(=O)[nH]1,-19,2.54
Cc1c(Br)cc(F)cc1C(=O)N(C)CC(C)(CO)CO,2,-0.26
CC(=O)NCC(=O)NCc1ccc2c(c1)ncn2C(C)C,-10,0.99
CN(C)c1cccc(NC(=O)NCCN2CCC[C@H](CO)C2)c1,-12,2.26
CCCCc1nc(CN2CC[C@@]3(CCCN(Cc4ccc(F)c(F)c4)C3)C2)c[nH]1,1,-0.22
O=C(CCC(F)(F)F)NCCCC[C@H]1CCCO1,-9,0.92
CN(CCCNC(=O)c1nc(CS(=O)(=O)c2ccc(Cl)cc2)no1)Cc1ccccc1,8,-1.46
C#Cc1cc(F)c(NCc2nnc(C)s2)c(F)c1,-5,0.53
COCCNC(=O)c1ccc(COc2ccc3c(c2)[C@H](c2ccccc2)N(C(=O)C(C)(C)C)CC3)o1,0,-0.03
O=C1CC[C@H](C(=O)NCc2ccc(-c3ccc4c(c3)CCO4)cc2)N1,-2,0.41
COCCOCC(=O)N1CC[C@@H]2CN(Cc3ccccc3)[C@@H]2C1,5,-0.98
CCC(CC)n1nc(C(=O)N2CC3(CCOCC3)C2)cc1C,30,-3.37
COCCn1cncc1CN1CCn2nc(CO)cc2C1,0,-0.03
